Among the data in ChEMBL document CHEMBL1157539, “Thousands of chemical starting points for antimalarial lead identification” (Nature, 2010) are IFI values, retold here.

Several values for one entry are separate records, joined by “and”; a condition that tells them apart may be missing. Equal entries are not always repeated. Over roughly 13,000 compounds, “IFI” has its median near 4; the highest 2% begin near 17. The list shows a part of the results.

The nature of this experiment: GSK_TCMDC: Inhibition Frequency Index (IFI). The number of non-kinase HTS assays where a compound showed > 50 % inhibition, expressed as a percentage of the number of such assays in which the compound was tested (-0 is zero). It counts as functional.
Turning to `CN(C)CCn1c(=N)n(CC(O)c2ccc(Cl)c(Cl)c2)c2ccccc21` (stereo not drawn), the IFI is 2.21%. `Cc1nnsc1C(=O)Nc1cccc(-c2ccc(-c3nc4cc(F)ccc4[nH]3)s2)c1`: the IFI amounted to 8.85%. Then `COc1ccc(O)c(C(=O)c2cc(C(=O)NC3CCCCC3)c(=O)n(C3CCCCC3)c2)c1`, with 10.8%. Compound `CC(C)CCNc1nc(NCc2ccccc2)c2cc(O)ccc2n1` showed an IFI of 10.1%. The result for `COCCCC1C(=O)OC2CCCC21` (stereo not drawn) reads -0%. Consider `Cc1c(C)n(C2CCCCC2)c2ncnc(OC3CCN(CC(=O)N4CCCC4)CC3)c12`, for which the IFI was 6.67%. The compound `CC(=O)c1ccc(N2CCN(CCC3(c4ccc(Cl)c(Cl)c4)COCN(C(=O)c4ccccc4)C3)CC2)cc1` (stereo not drawn) came in with an IFI of 4.9%. The result for `CC(=O)Nc1ccc(C(=O)Nc2cccc(-c3ccc(-c4nc5cc(F)ccc5[nH]4)s3)c2)cn1` reads 3.7%. As for `COc1ccc(C[C@H](N)C(=O)N[C@H]2[C@@H](O)[C@H](n3cnc4c(N(C)C)ncnc43)O[C@@H]2CO)cc1`, the IFI was 10% and 8.45%. The result for `CCCCNCc1ccc(-c2nc(CN(CCCN3CCN(C)CC3)C(=O)Nc3cccc(Cl)c3)cs2)cc1` reads 6.71%. Then `N#Cc1cccc(C(=O)Nc2cccc(-c3cccc(CN4CCNCC4)c3)c2)c1`, with 3.96%; and `CN1CCCN(c2ccnc3cc4c(cc23)N(C(=O)c2ccc(C(F)(F)F)cc2)CC4)CC1`, with 1.41%.

The compound `CC(C)(C)c1cc(C(=O)N2CCN(c3cnccn3)CC2)n(Cc2ccccc2)n1` yielded an IFI of 0%.

In the case of `N#C/N=C(\NCCCCCCCCN/C(=N\C#N)NCCSCc1csc(N=C(N)N)n1)NCCCSc1csc(N=C(N)N)n1`, the IFI was found to be 9.3%. The result for `CCN(CC)CCCNc1cc[n+]([O-])c2cc3ccccc3cc12` reads 1.47%; that for `Cc1cc(NCCc2ccccc2)nc(NC(=N)Nc2cccc(F)c2)n1`, 6.77%; that for `CC(=O)Nc1ccc2[nH]cc(C3CCN(CC4CCC(NC(=O)/C=C/c5ccccc5Cl)CC4)CC3)c2n1` (stereo not drawn), 0.7%. `Cc1cc(Nc2cccc(C(F)(F)F)c2)nc(Nc2cccc(C(F)(F)F)c2)n1` came in with an IFI of 4.35%. The result for `Cc1ccc(F)c(OCC2CCN(c3ncc(C(=O)NC4CC4)cc3Cl)CC2)c1` reads 17.3%; that for `CC1(C)CCCN(C(=O)c2cccc(-n3nc(-c4ccc(Cl)cc4)cc3N)c2)C1`, 5.56%.

For the compound `FC(F)(F)c1cc(C(F)(F)F)c2cc(CNCCCNc3nc4ccccc4[nH]3)[nH]c2c1`, the IFI turned out to be 11.2%. The compound `O=C(CCCCCNC(=O)c1ccc(O)c(-c2ccc(Cl)c(Cl)c2)c1)NCCN1CCOCC1` displayed an IFI of -0%. Then `COc1ccc(-c2nc(NC(=O)Cc3ccc4c(c3)OCCO4)sc2C)cc1`, with 5.26%; and `O=C(Nc1nc(-c2ccccn2)cs1)c1ccc(S(=O)(=O)N2CCc3ccccc32)cc1`, with 4.65%. With `Cc1ccc(O)cc1Nc1ccnc2ccc(-c3cccc(CNCCN(C)C)c3)cc12`, the IFI came to 4.41%. In the case of `COc1ccc2nccc(NCC3(O)CCN(CCc4ccc5c(c4)OCCO5)CC3)c2n1`, the IFI was found to be 6.62%. With `COc1ccc(CNC(=O)NC2CCN(c3ccnc(Nc4cc(OC)c(OC)c(OC)c4)n3)C2)cc1` (stereo not drawn), the IFI came to 3.08%. As for `Cc1ccc(Cn2cnc3cc(C(=O)Nc4ccc(-c5ccc(CN(C)C)cc5)cc4)ccc3c2=O)o1`, the IFI was determined as 9.26%. Compound `Cc1cc(N2CCCC2)nc(Nc2ccc(NC(=O)C3CCCC3)cc2)n1` gave an IFI of 9.62%. Regarding `COCCN1CCC(C(=O)NCC(C)(C)c2nc(-c3ccc(Br)c(O)c3)c(-c3ccncc3)[nH]2)CC1`, the IFI was -0%. `COc1cc(C(=O)N2COCC(CCCN3CCC(N4CCCC4)CC3)(c3ccc(Cl)c(Cl)c3)C2)cc(OC)c1OC` (stereo not drawn) showed an IFI of 2.78%.

`CN/C(=N\O)NCCN(C)C`: the IFI came to 1.43%. The result for `Cn1c2c(c3ccccc31)CN(CCC1(c3ccc(Cl)c(Cl)c3)CN(C(=O)Cc3ccccc3)CCO1)CC2` (stereo not drawn) reads 4.41%; that for `COCCN1CCN(Cc2ccc(-c3ccc(-c4nc5cc(F)ccc5[nH]4)cc3)cc2)CC1`, 4.9%. `Cc1c(C(=O)N(C)C)sc2c1c(=O)n(Cc1ccccc1)c(=O)n2CC(=O)Nc1ccccc1F` gave an IFI of 0%. Then `CC(=O)CSC(C=Cc1ccc(N(C)C)cc1)=Nc1ccccc1`, with 10.6%; and `COc1cccc(C(=O)NCCc2cccc(Cl)c2)c1OCc1ccccc1`, with 2.14%. `Nc1nc(N)c2c3c(ccc2n1)CCC3` gave an IFI of 1.46%. The result for `Oc1ccc2c(CNCCc3ccccc3)c(O)ccc2c1CNCCc1ccccc1` reads 6.67%. For `Cc1cc(-c2cccc(CNCc3ccccc3)c2)ccc1S(=O)(=O)NCCN1CCCC1`, the IFI was 12.4%.

In turn, `O=C(c1cccc(-c2ccc(-c3nc4cc(C(F)(F)F)ccc4[nH]3)cc2)c1)N1CCCCC1CN1CCC(O)C1` (stereo not drawn) displayed an IFI of 4.42%. `O=C(Nc1ccc(-c2nc3ccccc3[nH]2)cc1)c1ccc(S(=O)(=O)N2CCc3ccccc32)cc1` yielded an IFI of -0%. Consider `Fc1ccc2[nH]c(-c3ccc(-c4ccc(CN5CCN(c6cnccn6)CC5)cc4)s3)nc2c1`, for which the IFI came out at 7.04%.

As for `CC(=O)NCCNc1nccc(N2CCc3ncnc(Nc4ccc(OCc5cccc(F)c5)c(Cl)c4)c3C2)n1`, the IFI came out at 5.59%. Then `CCCC(=O)Nc1ccc(OCCCCN(CC(C)(C)C)c2ccc(C#N)c(C(F)(F)F)c2)cc1`, with 3.13%; and `COc1ccc(C(=O)CCC(=O)N(CCSC(C)(C)C)Cc2ccc(-c3ccc(CNCCc4ccc(S(C)(=O)=O)cc4)cn3)cc2)cc1F`, with 2.8%; and `CN1CCC(C(=O)N(Cc2ccc(-c3ccc(CNCCc4ccccc4)cn3)cc2)C2CCN(Cc3ccccc3)CC2)CC1`, with 5.52%. The result for `CO/C(=C\C=C\c1cc2cc(Cl)c(Cl)cc2[nH]1)C(=O)NCC(C)(C)CN(C)C` reads 13.2%. The result for `CN1CC=C(c2csc3ccc(NC(=O)Nc4ccc(-c5ccncc5)c5ccccc45)cc23)CC1` reads 5.22%. For the compound `O=C(Nc1cccc(C(F)(F)F)c1)c1cccc(S(=O)(=O)NC2CCCN(CC3CCCCC3)C2)c1` (stereo not drawn), the IFI was 7.14%.

`Cc1cc(N2CCCC2)nc(Nc2ccc(NC(=O)CC(C)C)cc2)n1` yielded an IFI of 5.26%. The result for `N=c1c2nc(-c3c(F)cccc3Cl)[nH]c(=O)c2[nH]c(=O)n1-c1ccccc1` reads -0%; that for `O=C(Nc1cccc(-c2cccc(-c3nc4cc(F)ccc4[nH]3)c2)c1)c1ccoc1`, 8.93%. `COc1ccc(CCNCC(O)c2cccc(Br)c2)c(Cl)c1OC` (stereo not drawn) showed an IFI of 3.03%. The result for `Cc1ccc(C(=O)Nc2ccc(-c3nc4ccccc4[nH]3)cc2)cc1S(=O)(=O)N1CCOCC1` reads 3.17%.

Turning to `CN1CCN(c2ccnc3cc4c(cc23)N(C(=O)Nc2ccc3c(c2)CCCC3=O)CC4)CC1`, the IFI was 1.47%. Then `O=C(Nc1cccc(CN2CCCN(CC3CC3)CC2)c1)c1ccc(-c2ccccc2)cc1`, with 4.79%.

In turn, `Cc1nc(C)c(-c2ccc(-c3ccc(F)cc3)cc2)c(O)c1Br` showed an IFI of 1.49%. Then `CCOc1ccc(C(C)NC(=O)c2cc(Cl)ccc2OC)cc1OCC` (stereo not drawn), with -0%.

On to `Oc1ccc(Cc2ccccc2)cc1CNC1CCCCC1`, for which the IFI was 3.5%. Then `O=C(Nc1ccc(OC2CCN(Cc3ccccc3)CC2)c(Cl)c1)c1cccs1`, with 3.33%; and `C=CCC(CC=C)N1C(=O)C(c2ccccc2)(c2ccccc2)N=C1N`, with 3.7%; and `O=C(Nc1ccc(-c2cccc(-c3nc4cc(C(F)(F)F)ccc4[nH]3)c2)cc1)c1ccncc1`, with 6.42%. In turn, `Cc1nc(C)c(-c2ccc(Oc3ccc(OC(F)(F)F)cc3)cc2)c(O)c1I` returned an IFI of -0%. Then `Cc1ccc(-c2ccn(Cc3ccc(OCc4ccccc4)cc3)n2)cn1.Cc1ccc(-c2ccnn2Cc2ccc(OCc3ccccc3)cc2)cn1`, with 1.65%; and `Cc1noc(C)c1-c1cccc(CNCc2ccc(-c3ccc(-c4nc5cc(C(F)(F)F)ccc5[nH]4)cc3)cc2)c1`, with 4.81%; and `CCNC[C@H]1CCCN1CCOc1ccc(-n2cnc3cc(-c4ccc(Cl)cc4)sc3c2=O)cc1OC`, with 7.03%. Consider `O=C(c1cncc(-c2ccccc2)c1)N(Cc1cncn1Cc1ccccc1F)CC1CC1`, for which the IFI came out at 7.14%. As for `CCCN(CCCN(CCCN(CCC)C(C)C)c1cc(C)nc(Nc2ccc(Cl)cc2)n1)C(C)C`, the IFI was found to be 8.76%. In the case of `OC(CNc1ccnc(Nc2ccc(Cl)cc2)n1)c1ccccc1C(F)(F)F` (stereo not drawn), the IFI turned out to be 14.4%. Then `COc1ccc(O)c(Cc2cnc3nc(N)nc(N)c3c2C)c1`, with 2.96%. Then `O=C(NCCCCN1CCC(O)(c2ccc3c(c2)OCO3)CC1)c1ccc(NC(=O)c2ccc(Cl)cc2)cc1`, with 0.75%; and `COc1cccc(CNC(=O)NC2CCN(c3ccnc(Nc4cc(OC)c(OC)c(OC)c4)n3)C2)c1` (stereo not drawn), with 6.45%. Regarding `O=C(Nc1ccc(-c2cccc(-c3nc4ccccc4[nH]3)c2)cc1)c1cnn2cccnc12`, the IFI was 7.48%.

Consider `CC(C)C[C@@H](NC(=O)NC1CCC(CCN2C3CCC2CC(OC(=O)C(CO)c2ccccc2)C3)CC1)C(O)(c1ccccc1)c1ccccc1` (stereo partly drawn), for which the IFI stood at 12.8%. Then `O=C(Nc1cccc(-c2ccc(-c3nc4cc(F)ccc4[nH]3)cc2)c1)c1cccnc1`, with 7.41%; and `CCOc1cc(C(=O)NCC2CCN(CC3CCCCC3)CC2)ccc1-c1nc2cc(Cl)ccc2[nH]1`, with 1.41%; and `Cc1ccc(/C=C/C(=O)NCCCCCN2CCCN(C(=O)Nc3ccc(Cl)c(Cl)c3)CC2)cc1`, with 8.65%. The compound `O=C(Nc1ccc(Cl)cc1)Nc1ccc(-c2cccc(-c3nc4ccccc4[nH]3)c2)cc1` gave an IFI of 4.04%. As for `Cc1nn(-c2cccc(C(F)(F)F)c2)c2sc(C(=O)NC3CCN(C(C)C)CC3)cc12`, the IFI is 10%.

Compound `COc1ccc(NC(=O)Nc2nc3ccccc3s2)cc1N1CCN(C)CC1` showed an IFI of 0.73%.

In the case of `Oc1ccc2nc(NCCCc3ccccc3)nc(NCCc3ccccc3)c2c1`, the IFI came to 14.1%. The result for `CN1CCC(COc2ccc(CN3CCC(NC(=O)c4cccc(Cl)c4)CC3)cc2)CC1` reads 5.88%. For `COc1cc(Cc2cnc(N)nc2N)cc(OCCCCCCN2C(=O)c3ccccc3C2=O)c1OC`, the IFI stood at 4.9%. For the compound `N#Cc1cccc(Nc2nccc(NCC(O)c3cccc(C(F)(F)F)c3)n2)c1` (stereo not drawn), the IFI came to 10.4%. Turning to `O=C(Nc1ccccc1)N(Cc1ccccc1-c1cccc(CNCc2ccc3c(c2)OCO3)c1)C1CCN(Cc2ccccc2)CC1`, the IFI turned out to be 8.09%.

For `CCN1CCC(N(Cc2ccc(-c3ccc(C(F)(F)F)cc3)cc2)C(=O)Cn2c(SCc3cccc(F)c3F)cc(=O)c3ccccc32)C1` (stereo not drawn), the IFI is 7.14%.

On to `Cc1cc(O)c(C(C)C)cc1C1(c2cc(C(C)C)c(O)cc2C)OC(=O)c2ccccc21`, for which the IFI was found to be 6.47%.
